Test results as given in publication PMC4336329 (PLoS ONE, 2015).
The whole screen tested about 310,000 compounds, of which about 2,200 (0.71%) showed an effect of 50% or more. Effects have a minus sign here. The list shows a part of the results.

target: human ether-à-go-go-related gene (hERG) potassium channel (human, UniProt Q12809); assay: primary screen, population patch clamp on CHO cells stably expressing hERG
Sequence (Q12809 whole entry, looked up): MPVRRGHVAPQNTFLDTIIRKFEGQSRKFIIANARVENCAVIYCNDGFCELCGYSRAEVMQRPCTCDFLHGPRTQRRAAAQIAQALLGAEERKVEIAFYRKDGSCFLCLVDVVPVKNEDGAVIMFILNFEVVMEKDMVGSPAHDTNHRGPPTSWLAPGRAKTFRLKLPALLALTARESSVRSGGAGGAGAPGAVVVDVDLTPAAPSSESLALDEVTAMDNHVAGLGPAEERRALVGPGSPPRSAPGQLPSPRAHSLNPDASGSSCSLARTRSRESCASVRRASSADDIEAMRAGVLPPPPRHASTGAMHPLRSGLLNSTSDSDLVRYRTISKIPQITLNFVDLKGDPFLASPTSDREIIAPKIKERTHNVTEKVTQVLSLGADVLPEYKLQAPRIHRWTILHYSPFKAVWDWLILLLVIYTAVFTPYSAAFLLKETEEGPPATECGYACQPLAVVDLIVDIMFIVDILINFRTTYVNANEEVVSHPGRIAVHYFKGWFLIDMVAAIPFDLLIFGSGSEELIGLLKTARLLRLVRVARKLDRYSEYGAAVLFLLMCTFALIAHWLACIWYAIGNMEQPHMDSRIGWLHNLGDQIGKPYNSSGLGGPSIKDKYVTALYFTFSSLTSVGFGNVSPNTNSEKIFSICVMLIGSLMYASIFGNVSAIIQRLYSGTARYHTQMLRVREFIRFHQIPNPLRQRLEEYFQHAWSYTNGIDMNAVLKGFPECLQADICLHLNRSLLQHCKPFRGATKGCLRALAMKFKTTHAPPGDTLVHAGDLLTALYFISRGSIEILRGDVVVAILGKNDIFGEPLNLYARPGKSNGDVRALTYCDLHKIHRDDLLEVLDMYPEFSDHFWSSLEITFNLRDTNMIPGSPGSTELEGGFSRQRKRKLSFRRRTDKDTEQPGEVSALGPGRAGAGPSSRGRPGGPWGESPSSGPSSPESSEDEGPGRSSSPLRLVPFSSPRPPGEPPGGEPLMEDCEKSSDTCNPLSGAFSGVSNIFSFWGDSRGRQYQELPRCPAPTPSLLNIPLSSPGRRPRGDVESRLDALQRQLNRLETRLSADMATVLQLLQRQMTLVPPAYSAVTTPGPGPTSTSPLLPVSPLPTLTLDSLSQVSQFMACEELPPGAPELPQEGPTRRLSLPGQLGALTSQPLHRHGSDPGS

Row | SMILES | hERG current change (%, negative = inhibition) at 1uM [%]
1 | CCOc1ccc(-c2nc(N)nc(C)c2-c2ccc(Cl)cc2)c(O)c1 | -4.33
2 | Cc1cc(O)c(C=Nc2ccc(Cl)cn2)c(=O)o1 | 11.7
3 | O=C(NCc1ccccc1Br)c1ccco1 | 12.5
4 | Cc1ccc(/C=N/Nc2ccc(F)cc2)s1 | 18.9
5 | N#CCCN(CCN1CCCC1)S(=O)(=O)c1ccc(-c2ccc([N+](=O)[O-])cc2)cc1 | -76.5
6 | CC(C)=C1C2CCC1C1C(=O)N(c3ccc(C)c(C)c3)C(=O)C21 (stereo not drawn) | 6.65
7 | Cc1ccc(Cl)cc1N1CCN(S(=O)(=O)c2ccc3c(c2)NC(=O)C(C)C(=O)N3)CC1 (stereo not drawn) | 7.93
8 | CC(=O)Nc1ccc(S(=O)(=O)Nc2nccc(C3Cc4ccccc4C(=O)O3)n2)cc1 (stereo not drawn) | 13.3
9 | Cc1cccc(OC(C)C(=O)Nc2ccc(N3CCCCC3)cc2)c1 (stereo not drawn) | 4.63
10 | Cc1ccc(NC(=O)N2CCN(c3ccccn3)CC2)cc1 | 6.19
11 | O=C(O)c1cccc(NC(=S)NC(=O)c2cncc(Br)c2)c1 | 8.81
12 | CC1c2cc3c(cc2CCN1C(=O)c1ccc(Cl)cc1)OCCCO3 (stereo not drawn) | 18.8
13 | Cc1c(CN2CCCC(C)C2)c(O)n(CCO)c(=O)c1C#N (stereo not drawn) | -0.601
14 | CCCOc1ccccc1C1SCC(=O)Nc2c1c(=O)[nH]n2C(C)CCC (stereo not drawn) | 12.2
15 | Cc1ccccc1-c1nc2c3ccccc3nc(=S)n2[nH]1 | 16.2
16 | c1ccc(-c2nn3c(-c4ccccc4)nnc3s2)cc1 | 22
17 | Cc1ccc(NC(=O)CSc2nnc(-c3ccco3)o2)cc1 | 7
18 | CC(C)(C)c1csc(NC(=O)c2ccccc2O)n1 | 5.62
19 | CN(C)c1ccc(N2C(=O)CC(Sc3ccccc3C(=O)O)C2=O)cc1 (stereo not drawn) | 12.4
20 | CC(=O)c1sc2nc(=O)c(C)nn2c1C | 3.48
21 | CC1(C)CC2(CC(c3ccccc3F)c3ccc(O)c(O)c3O2)NC(=S)N1 (stereo not drawn) | 14.1
22 | O=C(O)C1C(c2ccccc2)C(C(=O)OCc2ccco2)C1c1ccccc1 (stereo not drawn) | -0.639
23 | CCN1CCCC1CNC(=O)c1ccc2c(=O)n(CCOC)c(=O)[nH]c2c1 (stereo not drawn) | 18.9

Row | SMILES | hERG current change (%, negative = inhibition) at 1uM [%]
24 | Cc1ccccc1Cn1c([N+](=O)[O-])cnc1C | -0.527
25 | COc1ccc2c(c1)O[C@@H](c1cccc(C(F)(F)F)c1)[C@H](O)C2=O | 9.31
26 | CCOC(=O)c1sc(=NC(=O)c2ccc(C)c(C)c2)n(C)c1C | 14.8
27 | CNC(=O)c1ccc(-c2cc(C(F)(F)F)nn2C)s1 | 16.9
28 | CCOC(=O)C1=C(C)C(c2ccccc2OC)NC(=S)N1 (stereo not drawn) | 3.52
29 | O=C(N/N=C/c1c(Cl)cccc1Cl)c1cccc(F)c1 | 4.45
30 | Cc1ccnc(NC(=O)CCCc2c[nH]c3ccccc23)c1 | 11.6
31 | COC(=O)C1=C(NC(=O)COc2ccc3ccccc3c2)CCS1 | 15.5
32 | CC(C)(C)c1ccc(/C=N/NC(=O)C(=O)NCCCN2CCOCC2)cc1 | 0.93
33 | CC1=C(C(=O)OCC(C)C)C(c2ccsc2)NC(=O)N1 (stereo not drawn) | 12
34 | Cc1ccc2oc(-c3cccc(NC(=O)C4CCCO4)c3)nc2c1 (stereo not drawn) | 7.46
35 | CCCS(=O)(=O)N1CCN(S(=O)(=O)c2ccc(F)cc2)CC1 | 13.4
36 | CC(C)c1ccc(S(=O)(=O)N2CCC3(CC2)OCCO3)cc1 | 18.2
37 | CCc1ccc(OCc2n[nH]c(=S)n2C(C)CCCC(C)C)cc1 (stereo not drawn) | 4.03
38 | CCC1=Nc2ccccc2NC2=C1C(=O)CCC2.Cl | -18.7
39 | O=C(NCc1ccc(Cl)cc1)c1ccc(COCC(F)(F)F)o1 | 7.11
40 | CCOc1ccccc1N1CCN(CC(=O)Nc2nnc(CC)s2)CC1 | 14.4
41 | Cn1c(=O)c2c(ncn2Cc2ccccc2)n(C)c1=O | 10.1
42 | COc1cc(C(=O)NCC(c2cccs2)N2CCc3ccccc32)cc(OC)c1OC (stereo not drawn) | 4.14
43 | CCN(CC)S(=O)(=O)c1ccc2oc(SCC(=O)NCc3ccccc3)nc2c1 | 10.9
44 | CCOc1ccc(N(CC(=O)NCc2ccccc2OC)S(C)(=O)=O)cc1 | 3.88
45 | O=C1C=C(c2ccccc2C(F)(F)F)C[C@@H](c2ccc3c(c2)OCO3)C1 | 0.206
46 | COc1ccccc1CCNC(=O)c1cccc(S(=O)(=O)N2CCc3ccccc3C2)c1 | -12.9

Row | SMILES | hERG current change (%, negative = inhibition) at 1uM [%]
47 | Cc1c(NC(=O)CCc2ccccc2)cccc1[N+](=O)[O-] | 4.99
48 | COc1ccccc1-n1cnnc1SCC(=O)c1cc(C)n(Cc2cccs2)c1C | -1.64
49 | CCn1cc(C(=O)Nc2ccc(C)cc2[N+](=O)[O-])c(C)n1 | 6.98
50 | COc1ccc(/C=N/Nc2ccc([N+](=O)[O-])cc2S(=O)(=O)N2CCN(C)CC2)cc1 | 11.7
51 | COc1ccc(CNS(=O)(=O)NCc2ccc(C)cc2)cc1 | 14.4
52 | O=c1[nH]c(=O)n(-c2ccccc2)c2c1C(C(F)(F)F)(C(F)(F)F)N=C(CCC1CCCCC1)N2 | 0.372
53 | COc1ccc(-c2ccc(SCC(=O)c3cccs3)nn2)cc1 | 9.88
54 | CSc1ccc(Cl)c(C(=O)NCc2ccco2)c1 | 10.3
55 | COc1ccc(C(=O)NCCNC(C)=O)cc1S(=O)(=O)NCc1ccc(Cl)cc1 | -1.21
56 | O=C(Cc1ccc(Br)cc1)NCCc1ccc(F)cc1 | 17.5
57 | O=C1c2ccccc2C(=O)N1n1c(=O)[nH]c2ccccc2c1=O | 9.46
58 | COc1nccnc1NS(=O)(=O)c1ccc(NC(=S)NC(=O)c2ccccc2)cc1 | 19.5
59 | Cc1c(C(=O)OCC(C)C)[nH]c2c1C(=O)CC(c1cccs1)C2 (stereo not drawn) | 18.7
60 | Cc1ccc(C(C)C)cc1OCC(=O)N/N=C/c1ccc2c(c1)OCCO2 | 11.8
61 | Cc1ccc(CNC(=O)CCNS(=O)(=O)c2cccs2)cc1 | -5.94
62 | COc1cc(/C=N/NC(=O)C(=O)NCC2CCCO2)ccc1OCC(=O)N1CCOCC1 (stereo not drawn) | 15.3
63 | O=C(CCCN1C(=O)/C(=C/c2ccccc2Cl)SC1=S)Nc1cccnc1 | 3.46
64 | COc1ccc(NC(=O)Nc2ccccc2SC)c(OC)c1 | 18.1
65 | CC(NC(=S)NC1CCCCC1)c1ccc(C(C)(C)C)cc1 (stereo not drawn) | 11.6
66 | Cc1cc(Oc2ccc(Br)cc2)nc(SCC(=O)c2ccccc2)n1 | 4.98
67 | COc1ccc(/C(O)=C2/C(=O)C(=O)N(Cc3cccnc3)C2c2ccncc2)cc1F (stereo not drawn) | 19.4
68 | O=C(NCc1ccccc1)C1=C[C@H](c2ccc(Br)cc2)C[C@H](OCc2ccc(CO)cc2)O1 | 8.76
69 | COc1ccc(NC(=O)CCCNS(=O)(=O)c2cccs2)cc1 | 7.9

Row | SMILES | hERG current change (%, negative = inhibition) at 1uM [%]
70 | O=C(CSc1nc2nccnc2c(=O)n1Cc1cccs1)Nc1ccccc1F | -5.77
71 | Cc1cc(-c2ccccc2)n2nc(C)c(C#N)c2n1 | 18.2
72 | O=C(Nc1ccc(Cl)c(C(F)(F)F)c1)C(=O)N1CCCCC1 | 13.2
73 | O=C(C(=C1NCCN1)n1cncn1)c1ccccc1 | 11.4
74 | COc1ccc(C(=O)Nc2nc3c(s2)Cc2cc(OC)ccc2-3)cc1 | 1.93
75 | O=C(O)C1CCCCC1C(=O)OCCCCOC(=O)C1CCCCC1C(=O)O (stereo not drawn) | 5.74
76 | Cc1cc(N2CCCC2=O)ccc1S(=O)(=O)Nc1c(C)nn(C)c1C | 9.25
77 | Cc1ccc(-c2csc(N3CCN(c4cc5c(cc4Cl)nc(C)n5CCN4CCCCC4)CC3)n2)cc1 | 12
78 | O=C1CCCC1C(=O)Nc1ccc2ccccc2c1 (stereo not drawn) | 4.3
79 | Nn1c(C2CCC2)nc2ccccc2c1=O | 8.84
80 | O=C(Cn1cnc2ccccc21)Nc1cc(C(F)(F)F)ccc1N1CCOCC1 | 0.981
81 | C=CCOc1ccc(CN(C)CC(=O)Nc2ccc3c(c2)CCC3)cc1.O=C(O)C(=O)O | 8.97
82 | CCCCNC(=O)CSc1nc2cc3c(cc2c(=O)n1Cc1ccco1)OCO3 | 10.1
83 | COc1nc(N(C)C)nc(N(C#N)CCOC(C)=O)n1 | 14.1
84 | O=C(c1ccc(F)cc1)N(Cc1cccs1)C1CCS(=O)(=O)C1 (stereo not drawn) | 7.97
85 | COc1ccc(-c2nc3n(n2)C(=O)CC(c2ccco2)S3)cc1 (stereo not drawn) | -4.27
86 | COc1ccc(C(=O)NCC(=O)N/N=C/c2cccc(OC(=O)c3ccco3)c2)cc1OC | 17.4
87 | CCOCc1nnc(NC(=O)c2cc(OC)c(OC)cc2[N+](=O)[O-])s1 | 14.9
88 | Cn1nc([N+](=O)[O-])nc1N1CCN(c2ccc(F)cc2)CC1 | -19.7
89 | O=C(Cn1cc([N+](=O)[O-])cn1)Nc1ccccn1 | 15.9
90 | Cc1ccc(NC(=O)[C@@H](NC(=O)N2C[C@H]3C[C@@H](C2)c2cccc(=O)n2C3)C(C)C)cc1 | 6.66
